Experimental data taken from PubChem BioAssay AID485313 (National Center for Advancing Translational Sciences (NCATS), 2010).
Screen size: about 320,000 compounds; about 7,600 (2.4%) were called active. Inconclusive results, whose numbers are uncertain, are shown with a selection of clear calls. Calls come from the whole dose curve; as a rule, active = well fitted activation curve with a large enough effect; inconclusive = small, poorly fitted or top-dose-only effect; inactive = no such curve, though single readings can be large or run the other way. Potencies of inconclusive entries are left out as doubtful fits.
Potency is the fitted concentration of half-maximal effect; tags give direction and shape of the fitted curve.

Test: qHTS Assay for NPC1 Promoter Activators; note: nearly all actives have a fitted effect of over 60% in size
Conditions: Huh7 NPC1 promoter luciferase reporter, 24 h; series mostly up to 9.22 µM
Text: NIH Chemical Genomics Center [NCGC] NIH Molecular Libraries Probe Production centers Network [MLPCN] MLPCN Grant: MH089375-01A1 Assay Submitter (PI): Yiannis A. Ioannou NCGC Assay Overview: Niemann Pick Type C (NPC) is a rare neurodegenerative lipidosis that is characterized by lipid storage in the endosomal/lysosomal system. Treatment modalities for this devastating disease are currently non-existent due to the severe obstacles associated with accessing the central nervous system with proteins or genes. The majority of mutations causing NPC disease are missense mutations that are distributed throughout the length of the NPC1 protein, with the most prevalent being the I1061T allele. Although NPC1 mutant proteins may be functional, they are typically trapped in the ER due to misfolding. […] We have developed and optimized a cell based luciferase reporter assay in 1536 well format for the identification of up-regulators of the mutant NPC1 promoter.
The NPC1 promoter is cloned in front of the luciferase reporter gene, therefore NPC promoter activation results in luciferase expression. Frozen stock of the NPC1 promoter transfected Huh7 cells were obtained from the laboratory of Dr. Yiannis Ioannou (The Mount Sinai School of Medicine, New York, NY). Cells were propagated and maintained at NCGC in medium containing RPMI-1640 supplemented with 10% FBS, 2mM L-glutamine, and 50ug/ml penicillin/streptomycin. Cells were harvested in and plated for assays in OP-MEM I reduced-serum medium supplemented with 10% FBS. The Amplite luciferase reporter gene assay kit was purchased from ABD Bioquest and prepared/stored according to manufacturers recommendations. qHTS Assay Setup: 1.#Dispensed 5ul of Huh7 cells stably expressing NPC1-luciferase at a density of 1500 cells per well 1536-well plates. 2.#Incubate cells at 37C, 5% CO2, and 95% humidity for 2 hours. 3.#Transferred 23nl per well of compound in DMSO solution. 4.#Incubated at 37C, 5% CO2, and 95% humidity for 24 hours. 5.#Dispensed 3ul per well of Amplite reagent(ABD Bioquest) per well. 6.#Incubate at ambient for 10 minutes. 7.#Read using the luminescence protocol on the ViewLux plate reader (Perkin Elmer).
For `Cc1nc(/C(N)=N/OC(=O)c2ccccc2Cl)c(C(F)(F)F)o1`, the Potency was inconclusive [activator, single point]. With `CC(=O)c1ccc(NC(=O)Cc2cccs2)cc1` the Potency was active: 2.82 µM. For `COCCCNC(=S)NC(=O)c1ccc(C)cc1`, the Potency was inconclusive [activator, single point]. With `CC(C)CC(=O)Nc1cccc(-c2cn3ccsc3n2)c1` the Potency was inconclusive [activator, partial curve]. In the case of `Cc1ccc(CNS(=O)(=O)NCc2ccccc2)cc1`, the Potency was “inactive”. For `CC1CCC/C(=C\Nc2ccc(C(=O)O)cc2)C1=O` (stereo not given), the Potency was inconclusive [activator, full curve]. In the case of `COc1cc(C(F)(F)F)ccc1C(=O)NCCc1ccco1`, the Potency was inconclusive [activator, partial curve]. In the case of `CN(c1ccc(C(=O)N2CCN(Cc3ccc4c(c3)OCO4)CC2)cc1)S(=O)(=O)c1ccccc1`, the Potency was “inactive”. For `COC(=O)C1CCN(C(=O)CCCOc2ccccc2)CC1`, the Potency was inconclusive [activator, partial curve]. In the case of `CCN(CC)S(=O)(=O)c1ccc(C(=O)OCC(=O)Nc2ccc(-c3nc4ccc(C)cc4s3)cc2)cc1`, the Potency was active: 0.398 µM. With `O=[N+]([O-])c1cccnc1Oc1ccc(OCc2ccccc2)cc1` the Potency was inconclusive [activator, single point]. For `COc1ccc(-c2nnc(SC(C)C(=O)Nc3cccc(Cl)c3)o2)cc1` (stereo not given), the Potency was inconclusive [activator, single point]. For `CCc1c(C)sc(NC(=O)c2cccs2)c1C#N`, the Potency was inconclusive [activator, single point]. For `COc1cccc(NC(=O)CC(=O)c2ccccc2)c1`, the Potency was active: 3.55 µM. In the case of `CCC1CSC(Nc2ccc(C(=O)/C=C/c3ccc(OC)c(OC)c3)cc2)=N1` (stereo not given), the Potency was “inactive”. In the case of `CN(C)c1ccc(N=Cc2nc(-c3ccccc3)oc2OC(=O)c2ccccc2)cc1`, the Potency was inconclusive [activator, single point]. For `Cc1cc(C(=O)NCCC2=CCCCC2)ccc1[N+](=O)[O-]`, the Potency was active: 4.47 µM. For `Cc1csc(NC(=O)c2cc3c(s2)CCCCC3)n1`, the Potency was active: 0.355 µM. With `COc1ccc(S(=O)(=O)N(C)C)cc1NC(=O)Cc1c[nH]c2ccccc12` the Potency was “inactive”. For `CC(=O)Nc1ccc(OCc2cnc(Cl)s2)cc1`, the Potency was “inactive”. For `CC(Cc1ccccc1)NC(=O)c1cc2ccccc2o1` (stereo not given), the Potency was active: 3.16 µM. In the case of `O=C(CNC(=O)C1CCCCC1)Nc1ccc(F)c(Cl)c1`, the Potency was “inactive”. With `Cc1ccc(N=Nc2c(C)[nH]n(C(N)=S)c2=O)cc1C` the Potency was active: 3.55 µM. For `COc1cc(C(=O)Nc2ccc3c(c2)OCCO3)ccc1OC(C)C`, the Potency was inconclusive [activator, partial curve]. With `COc1cccc(/C=N\Nc2nncc(-c3ccccc3)n2)c1` the Potency was inconclusive [activator, single point]. For `COc1ccc(NC(=O)c2ccc3c(c2)OCO3)cc1[N+](=O)[O-]`, the Potency was active: 2.82 µM. In the case of `O=C(CC(Nc1ccc(F)cc1)C(=O)OCC(=O)c1cccs1)c1ccccc1` (stereo not given), the Potency was inconclusive [activator, partial curve]. With `COc1ccc(-c2cn3cc(C(F)(F)F)cc(Cl)c3n2)cc1` the Potency was inconclusive [activator, single point]. In the case of `O=C(N/N=C/c1ccc(O)cc1)c1cccc(C(F)(F)F)c1`, the Potency was “inactive”. For `CCN(CC)c1cc(Cl)nc(N)n1`, the Potency was “inactive”. With `Cc1occc1C(=O)Nc1cc(C(C)(C)C)on1` the Potency was active: 2.82 µM. In the case of `O=C(NC1CCCCCCC1)c1ccccc1-c1ccccc1`, the Potency was “inactive”. With `COc1ccc2c(C(=O)c3ccc(C)cc3)n(Cc3ccc(C(N)=O)cc3)[n+]([O-])c2c1` the Potency was inconclusive [activator, partial curve, poor fit]. With `COc1ccc(OC)c(S(=O)(=O)N2Cc3ccccc3CC2C(=O)Nc2nccs2)c1` (stereo not given) the Potency was “inactive”. In the case of `CCn1cc(S(=O)(=O)NCc2ccc(OC)cc2)cn1`, the Potency was “inactive”. With `O=C(CCNc1n[nH]c(=O)[nH]c1=O)N/N=C/c1ccc(C(F)(F)F)cc1` the Potency was “inactive”. With `Cc1cc(C)c(NC(=O)NC2CCCCC2)c(C)c1` the Potency was “inactive”. For `COc1ccc(C(=O)NCC2OCCc3ccccc32)cc1` (stereo not given), the Potency was “inactive”. For `CC1CCN(c2ccc3nnc(CCC(=O)Nc4cc(F)ccc4F)n3n2)CC1`, the Potency was “inactive”. With `CCN1CCN(CCCNC(=O)c2ccc3c(c2)N(Cc2ccccc2)CCS3)CC1` the Potency was “inactive”. With `CCc1cc(C(=O)NNC(=S)Nc2ccccc2C)cs1` the Potency was active: 3.55 µM. With `N/C(=N\c1nc2ccccc2o1)NC(=O)c1ccc(F)cc1` the Potency was inconclusive [activator, partial curve]. In the case of `COc1ccc([N+](=O)[O-])cc1COc1ccc2c(-c3ccccc3)cc(=O)oc2c1`, the Potency was inconclusive [activator, partial curve]. With `COC(=O)c1ccc(N2CCC(C)CC2)c(N)c1` the Potency was inconclusive [activator, partial curve]. For `COc1cccc(C(=O)Nc2cccc(NC(C)=O)c2)c1`, the Potency was “inactive”. For `O=C(Nc1ccc(Oc2ccccc2)cc1)C1CCCO1` (stereo not given), the Potency was inconclusive [activator, partial curve]. For `O=C(Nc1nnc(Cc2ccccc2)s1)c1cccs1`, the Potency was inconclusive [activator, partial curve]. In the case of `Cc1ccc(NC(=O)c2cc3c(s2)CCCC3)cc1`, the Potency was active: 3.16 µM. For `Cc1ccc(CNC(=O)C2CCC(=O)N(CCc3ccc(Cl)cc3)C2)cc1` (stereo not given), the Potency was inconclusive [activator, partial curve]. For `CCc1ccccc1OCC(=O)Nc1ccc2c(c1)OCCO2`, the Potency was inconclusive [activator, single point]. With `Oc1c(Cl)cc(Cl)cc1C1=NNC(c2ccc(Cl)cc2)C1` (stereo not given) the Potency was inconclusive [activator, single point]. With `COc1ccc2nc(NC(=O)C34CC5CC(CC(NC(C)=O)(C5)C3)C4)sc2c1` the Potency was inconclusive [activator, partial curve]. In the case of `O=C(O)c1ccc(N/N=C/C=C/c2ccccc2)cc1`, the Potency was active: 0.316 µM. In the case of `Cc1ccc(OCC(=O)Nc2sc3c(c2C#N)CCC3)cc1C`, the Potency was inconclusive [activator, single point]. With `COc1cccc2c1OCC(C(=O)Nc1nccs1)=C2` the Potency was active: 2.24 µM. For `Cc1ccc2nc(NC(=O)COC(=O)c3ccccn3)sc2c1`, the Potency was inconclusive [activator, partial curve]. In the case of `Cc1ccc2c(c1)N(C(=O)CCC(=O)N1CCC(C(N)=O)CC1)CCO2`, the Potency was “inactive”. For `CN(C)C=Nc1ccc2nn(-c3ccccc3)nc2c1`, the Potency was active: 2.82 µM. In the case of `COc1cc2c(cc1NC(=O)C(C)Sc1cccc[n+]1[O-])oc1ccccc12` (stereo not given), the Potency was inconclusive [activator, single point]. In the case of `Nc1ccc(SCc2nc3cccc4c3n2CCC4)cc1`, the Potency was inconclusive [activator, partial curve]. For `Cc1nonc1C1CCCN1C(=O)c1cc(COc2ccc(F)cc2F)on1` (stereo not given), the Potency was inconclusive [activator, single point]. In the case of `COc1ccc(N/C=C2/CCCCC2=O)cc1`, the Potency was inconclusive [activator, single point]. For `COCCCNC(=O)c1c(N)n(-c2cccc(S(N)(=O)=O)c2)c2nc3ccccc3nc12`, the Potency was “inactive”. With `O=C(Nc1nc2ccc(Cl)cc2s1)c1ccco1` the Potency was active: 0.631 µM. With `CC(OC(=O)c1cc(O)c2ccccc2c1O)C(=O)Nc1ccc(C(N)=O)cc1` (stereo not given) the Potency was “inactive”. For `Cc1nc2ccc(NC(=O)c3ccco3)cc2s1`, the Potency was inconclusive [activator, partial curve]. In the case of `COc1ccc(C(=O)NC(=O)Nc2ncccc2C)cc1`, the Potency was inconclusive [activator, partial curve]. For `O=c1c2ccccc2nnn1COc1ccc(Cl)cc1Br`, the Potency was inconclusive [activator, partial curve]. For `COc1cccc(OC)c1NC(=O)c1nc2c(nnn2Cc2ccccc2Cl)c(=O)[nH]1`, the Potency was “inactive”. For `O=C(Nc1ccc(-c2nc3ccccc3s2)c(O)c1)C1=COCCO1`, the Potency was active: 0.501 µM. For `O=C(Nc1cccc(O)c1)c1ccc(Br)cc1`, the Potency was inconclusive [activator, single point]. For `COc1ccc(C(=O)N/N=C/c2c[nH]c3ccccc23)cc1`, the Potency was inconclusive [activator, single point]. With `C/C(=N\NC(=O)c1cccc(N/N=C(\C)c2ccccc2)c1)c1ccccc1` the Potency was inconclusive [activator, single point]. For `CCOC(=O)/C(C#N)=C/N=c1ccc(C)cn1C`, the Potency was inconclusive [activator, single point]. For `COc1ccc(CN(C(=O)c2snc(C(N)=O)c2N)C(C)C(=O)NCc2ccc(F)cc2)cc1` (stereo not given), the Potency was “inactive”. With `O=C1NC(c2ccncc2)Nc2sc3c(c21)CCCC3` (stereo not given) the Potency was inconclusive [activator, partial curve]. With `COc1cccc(Nc2nc(-c3ccc(O)cc3)cs2)c1` the Potency was inconclusive [activator, single point]. For `CCOc1ccc(C(=O)Nc2ccccc2-c2ccccc2)cc1Cl`, the Potency was “inactive”. In the case of `COc1ccc(CNC(=O)C(=O)NCC2OCCN2S(=O)(=O)c2ccc(C)cc2)cc1` (stereo not given), the Potency was “inactive”. In the case of `O=C(Nc1ccc(N2CCCCC2)cc1)c1ccc2c(c1)OCCO2`, the Potency was inconclusive [activator, partial curve].
